The inconclusive results got no clear call from the source; some entries with a clear call stand among them for comparison. For part of these data: A potency beside an inconclusive call is a rough fit, not a confirmed value. Active and inactive are the calls of the source. The call rests on the fitted dose curve; in most records, active means well fitted curve in the direction sought with a large enough effect; inconclusive means small, poorly fitted or top-dose-only effect, or another doubt; inactive means no such curve, though single readings can be large; an effect the other way counts as inactive or inconclusive.
Columns and labels:
[1] = Primary qHTS for inhibitors of nuclear receptor binding SET domain protein 2 (NSD2) in an isogenic RCH-ACV NSD2 p.E1099K mutant (9B) (AID 1645876); further: nearly all actives have a fitted effect of over 70% in size; further: potency means the concentration at half of the fitted maximal effect
[2] = Primary qHTS for inhibitors of nuclear receptor binding SET domain protein 2 (NSD2) in an RCH-ACV wild type WT cells (2C) (AID 1645877); further: nearly all actives have a fitted effect of over 70% in size
[3] = Primary fluorescence-based thiol-reactive (MSTI) qHTS assay for identification of artifact compounds. (AID 1845221);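 further: potency means the concentration at half of the fitted maximal effect; thiol-reactive compounds lower the probe fluorescence signal; nearly all actives have a fitted effect of over 65% in size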
How it was run: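 qHTS titration of compound; 4 uM MSTI, PBS pH 7.4, 2% DMSO; 1 h RT, dark; fluorescence 525/598 nm; normalized to Acetyl-MSTI and MSTI; 4-parameter Hill fit.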

[4] = target: Phospholipid hydroperoxide glutathione peroxidase GPX4 (Homo sapiens) (UniProt P36969); experiment: Primary qHTS Assay for Inhibitors of Recombinant Selenoprotein Glutathione Peroxidase 4 (GPX4) (AID 1845192); further: nearly all actives have a fitted effect of over 65% in size; further: potency means the concentration at half of the fitted maximal effect
How it was run: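 Steps: GPX4 plus compound, 30 min RT; add GR/GSH/NADPH master mix; start with cumene hydroperoxide; read 340/450 nm fluorescence at 0 and 15 min. Finals were 200 nM GPX4, 1 mM GSH, 0.5 mM CHP, 0.5 mM NADPH, 100 nM GR.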
Tags describe the fitted curve by direction and shape.

Sequence of UniProt P36969 (P36969 whole entry, looked up): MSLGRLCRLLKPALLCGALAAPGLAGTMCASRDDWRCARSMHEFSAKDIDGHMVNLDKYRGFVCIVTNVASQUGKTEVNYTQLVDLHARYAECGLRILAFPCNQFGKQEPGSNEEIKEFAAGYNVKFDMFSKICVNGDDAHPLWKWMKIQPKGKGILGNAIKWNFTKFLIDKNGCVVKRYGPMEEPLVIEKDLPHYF

Question: For CC1=CC2(O)/C=C/C(C)(O)C(O)C(O)/C=C/C(=O)OC23C(=O)NC(CC(C)C)C3C1C (stereo not drawn), which Potency [1] is on record?
Answer: inactive

Question: And the Potency [2]?
Answer: inactive

Question: What about the Potency [3] of the same molecule?
Answer: active: 10.3 µM

Question: What does the source list for O=C(O)COc1ccccc1?
Answer: Potency [1]: inactive; Potency [4]: inactive

Question: Which Potency [1] does the source give for CCCN1CCC[C@@H]2Cc3nc(N)ncc3C[C@H]21 here?
Answer: inactive

Question: And the Potency [4]?
Answer: inactive

Question: What does the source list for CC[C@@H]1C[C@H]2CC[C@H](O2)[C@H](C)C(=O)O[C@@H](C)C[C@@H]2CC[C@@H](O2)[C@@H](C)C(=O)O[C@H](CC)C[C@H]2CC[C@H](O2)[C@H](C)C(=O)O[C@@H](C)C[C@@H]2CC[C@@H](O2)[C@@H](C)C(=O)O1?
Answer: Potency [1]: active: 0.0192 µM; Potency [3]: inconclusive: 2.81 µM [inhibitor, partial curve]

Question: With Cc1sc2c(c1C)C(c1ccc(Cl)cc1)=N[C@@H](CC(=O)Nc1ccc(O)cc1)c1nnc(C)n1-2 as the molecule, how does the Potency [1] read?
Answer: active: 0.0615 µM

Question: And the Potency [4]?
Answer: inconclusive: 22.7 µM [inhibitor, single point]

Question: Which results are given for CC(=O)N1N=C(c2ccc(N)cc2)c2cc3c(cc2C[C@H]1C)OCO3?
Answer: Potency [1]: inconclusive: 18.3 µM [inhibitor, single point]; Potency [4]: inconclusive: 10.1 µM [inhibitor, partial curve, poor fit]; Potency [3]: inconclusive: 2.99 µM [inhibitor, partial curve, poor fit]

Question: Which Potency [1] does the source give for COc1ccc2c(c[n+](C)c3c4cc5c(cc4ccc23)OCO5)c1OC here?
Answer: inactive

Question: What about the Potency [4] of the same molecule?
Answer: inconclusive: 22.7 µM [inhibitor, single point]

Question: Which Potency [1] does the source give for Fc1cc(F)c2c(c1)C1C=CCC1C(c1cccnc1)N2 (stereo not drawn) here?
Answer: active: 8.17 µM

Question: What about the Potency [3] of the same molecule?
Answer: inconclusive: 5.97 µM [inhibitor, partial curve]

— PubChem BioAssay (NCATS)
